# Laboratory results: the supplement of paper PMC11417369
# ± gives the standard deviation of the averaged measurements. The list shows a part of the results.
# Tested on: PfAP2-EXP AP2 domain (GST-tagged)
# Experiment: gcPBM binding intensity (ln(normalized median fluorescence intensity)); higher = stronger DNA binding
# Summary of the method: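 After 1 h on an Agilent 4 × 180k array of primer-extended double-stranded 36-bp intergenic genomic probes and negative controls, bound GST-tagged P. falciparum DNA-binding domains were detected with Alexa488 anti-GST antibody and scanned at 488 nm. The domains had been expressed in E. coli, and binding took place in 1× PBS with 1% milk, 0.2 mg/ml BSA, 0.5% salmon testes DNA and 0.03% Triton X-100. Binding intensity is the highest Masliner-normalised natural-log median intensity across replicate spots of either probe orientation.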
row,Sequence,gcPBM binding intensity (ln)
1,TTTTTAAATTATTGCACACAAAAATGAAAGGAAAAA [CACACA_site1455],8.84 ± 0.2
2,CTAAAAATCTTTTGTTGTACTTTTAGATAATCAGGA [XGTACX_site3968],8.26 ± 0.48
3,TACATATTTATATACACACACACCGTCCGTGTTAAA [CACACA_site7413],8.47 ± 0.23
4,AAAGGGATGTTCATTCTTTTTTTTTTTTTTGTATAT [CACACA_negctrl_site511],8.12 ± 0.47
5,AAGTAAAAAAATAGCACACACACAAAAACACAGACA [CACACA_site4839],8.94 ± 0.58
6,AGTGTATTTTTATGTTGTACATGTAATATTTTTGAT [XGTACX_site541],8.73 ± 0.33
7,TAATTCATCATATGCACACACAATACCAAAATGTGC [CACACA_site191],8.61 ± 0.33
8,TACAGATATTCATATAAACACACATACAAATTATGT [CACACA_site7929],8.37 ± 0.38
9,CTTTTTTTTTAAATATCACACACATATAATATATTC [CACACA_site9222],8.36 ± 0.45
10,TATATAATATATTAATGTACGTTATATGTATTCCTT [XGTACX_site6140],8.42 ± 0.4
11,TATGTGGCACAAAAGGGTACATATAATTTATACAGG [XGTACX_site5499],8.88 ± 0.43
12,TGTGTACCGATATTAAGTTTAACGTTATAAAAATAT [CACACA_negctrl_site1547],8.55 ± 0.32
13,AAACAGAATGCATATACACACATACAAAAAAGTGCA [CACACA_site6591],8.95 ± 0.45
14,AAAGGACAAAAAAATGCATGCCGTTAAATTATGTAC [TGCATGCA_site512],9.18 ± 0.47
15,TTTCTAAACCGGTACAGTACATATAAAAATAGAATA [XGTACX_site6662],8.78 ± 0.32
16,GTACAAAAATAAATTGCACACATTTTAATAAAAAAA [CACACA_site2130],8.35 ± 0.15
17,AGATTTAAATATCATACACACTTTATCTATAATACA [CACACA_site6581],8.32 ± 0.4
18,TATATTTATTTATATACACACATATTTATAAATATA [CACACA_site7047],8.45 ± 0.41
19,TAGTTGTTTATAACACGTTGACAGAAATGTTATGTA [GTGCAC_negctrl_site624],8.46 ± 0.38
20,CAAAATTGACATGACGCACACAAGTGTAGATATTTT [CACACA_site1250],8.57 ± 0.4
21,TATAAATAATGTTAAACACACATACCGATATATAAC [CACACA_site7306],8.65 ± 0.49
22,AAGCATTTCCATGGTGGTACTATACAAATAATAATT [XGTACX_site6193],8.61 ± 0.38

row,Sequence,gcPBM binding intensity (ln)
1,TATTCGTGCAATAATGGTACACTTATAAATTATTCA [XGTACX_site1430],8.86 ± 0.28
2,TATTAAACTAAATGTAGTACATACACAAACGTAATC [XGTACX_site4905],8.66 ± 0.35
3,AAAAAAATTTGTATCACACACGTATTATAAAAAAAT [CACACA_site4182],8.49 ± 0.41
4,ATTTTTTTTTTTAAATGTACATAATATATATATAAT [XGTACX_site2686],8.6 ± 0.41
5,TCTCTCTTATAAAATACACACGAACAATCATATTAT [CACACA_site8065],8.54 ± 0.4
6,CGAACATTATAAATGTCATTTTTTCCAACTTGATCT [GTGCAC_negctrl_site501],8.3 ± 0.37
7,TTCTTTTTTCTTTATGGTACGTGTAATATATATCAA [XGTACX_site7960],8.9 ± 0.31
8,TACATATTTTTTATGTGTACATATTTTTTATGTGTG [XGTACX_site444],8.32 ± 0.26
9,CCCAATAATTAAACAACACACATATATATATGTAAT [CACACA_site3084],9.19 ± 0.64
10,ATAAAATACAGATAAACACACATATAAACACCCATA [CACACA_site5381],8.95 ± 0.4
11,CTTTATTTTTTATACACACACAATATGTATAAATAT [CACACA_site7638],8.62 ± 0.37
12,TTTATAAAATTATTTGCATGTAACAATTATAAATTG [TGCATGCA_site1026],8.71 ± 0.34
13,TTTTTTTTTCTTTCTCTTTAAATATTAATTAAAAAA [GTGCAC_negctrl_site90],8.38 ± 0.49
14,AATGTGAAATATAAATGTACATAAATATATATATAT [XGTACX_site8710],9.86 ± 0.17
15,AAAATATAAATATATTGTACTGTTATATAATAAAAT [XGTACX_site2132],8.21 ± 0.33
16,TAACTATCATGTATTACACACAATATTTATTATAGA [CACACA_site7301],8.32 ± 0.39
17,TAAAAAAAAATAAATACATGCATATAATACATTATA [TGCATGCA_site518],8.6 ± 0.2
18,TAATGAGGAAAAAGTGTGTTAAGATTTTATAATTTA [GTGCAC_negctrl_site608],8.15 ± 0.24
19,TGAACATGTTAAAATAAACACACAGCTAAGGTTTTT [CACACA_site7934],8.39 ± 0.48
20,TATCATATAAATACATGTACATATTTGGAAAATAAT [XGTACX_site5373],8.81 ± 0.38
21,ATATATATATTAACAATACACACGTGTATACCTTAT [CACACA_site2217],9.39 ± 0.16
22,ATGTTTTGTAAAATGATTAAATATTAAGATTCAATA [CACACA_negctrl_site1743],8.1 ± 0.49

row,Sequence,gcPBM binding intensity (ln)
1,CATCATAGCATTCCTCGTACAAATATAAACATATCA [XGTACX_site2711],8.69 ± 0.39
2,TAGTAAATAACAAAAGGAAAAATTAATGAGGCAAAA [TGCATGCA_negctrl_site526],8.78 ± 0.46
3,CATATACACGAACACACACACATATATATATATATA [CACACA_site4437],10.3 ± 0.39
4,CTTAGAGTATTTAAATGTACACGTTTGTATATGTAT [XGTACX_site1767],8.63 ± 0.47
5,ATAAATAAATACATATGTACATATATATATATATAT [XGTACX_site7145],10.2 ± 0.35
6,ATATATATATTAAGGGGTACGTAAAAAATTGGGAAG [XGTACX_site7322],9.38 ± 0.18
7,TCAGTTAATGTATATGTACACACGGGGTGTATATAT [CACACA_site9103],8.71 ± 0.49
8,AAATTATATCCCCTTTGTACTTACAGATCTTTATAC [XGTACX_site8163],8.77 ± 0.51
9,ACAAAAAAAAAAAAAAAAAGAAGAATATATCTATAT [CACACA_negctrl_site759],8.24 ± 0.47
10,TATCATACAATATTCACACAAATAAATTGACATATT [CACACA_site5891],8.31 ± 0.31
11,AAAAAGGAAATAATAACACACATTAGTAATTATAAA [CACACA_site7573],8.48 ± 0.38
12,CACAGACACGGACACACACACACAAAAAAAAAAAGA [CACACA_site4436],8.44 ± 0.57
13,TATTTTCTTTAATTAATTATTGGTCTGAATGGGGTT [CACACA_negctrl_site418],8.7 ± 0.75
14,TATTAAAAAAATATTTGTACTTAAAATTTATTATAT [XGTACX_site1467],8.07 ± 0.3
15,AATTAATAAATATTATATGTTAATATTTTTTTTGTT [CACACA_negctrl_site1692],7.99 ± 0.4
16,AGAGGAGTAAAACAAAACAAAGAGAAATAAACACAC [XGTACX_negctrl_site386],9.35 ± 0.47
17,TTTCATATCTTGTCAAGTACATATTTTTATTTTCTT [XGTACX_site2160],8.63 ± 0.41
18,AAAAAATATAATAATTGTACACATGCACACACAAAT [XGTACX_site1563],9.06 ± 0.18
19,ACTTAATATCGGTACACACACAAGATAAGAATTATG [CACACA_site894],8.74 ± 0.4
20,TTTTTATAAAAATGAACACACACATATATATATATA [CACACA_site9160],10.2 ± 0.4
21,AATAACACTATTTAACGTACAAAAAAAAAAAAGAAA [XGTACX_site3721],8.67 ± 0.31
22,ATATATCTTTATATAGTGCATTAAATATGTTGTAAT [GTGCAC_site9953],8.53 ± 0.057

row,Sequence,gcPBM binding intensity (ln)
1,ATACTAAAAATGAATGTACACATATATATATATATA [TGCATGCA_negctrl_site209],10.2 ± 0.33
2,AAAAAAAATAAAAATAGTACCCAAAAAATTATGAAT [XGTACX_site6641],8.61 ± 0.39
3,TATAATAAAATATTTTGTACGTATATTTTAATATTT [XGTACX_site2582],8.32 ± 0.45
4,TTTTTAAAAAATAAGAAAAAATAAATATATTACAAA [XGTACX_negctrl_site191],8.46 ± 0.46
5,ATGTTACACAGACACACACACATAAAAAAACAAAAA [CACACA_site7516],8.62 ± 0.63
6,CAGCATGGTATACCTATAAAATATATATACTAACAT [TGCATGCA_negctrl_site51],9.01 ± 0.49
7,CACATACATATATATACACACAAATATATATACGCA [CACACA_site791],8.47 ± 0.54
8,GGCATATATACATATGGTACACATTTATTAATACCG [XGTACX_site2710],8.54 ± 0.38
9,GATGTGTATATTAAATGTACGAACAGTTGAGGCGAA [XGTACX_site7853],9.15 ± 0.38
10,AGGATATAAAGTTGTGCATGTCAAGTGCACCGTATT [TGCATGCA_site451],9.1
11,AGAAAAATCTAAATTCGTACATAACGTTTAAACATA [XGTACX_site2511],8.36 ± 0.43
12,GTTTTATTCCATTATTGTACTTAATATAAAGAAACT [XGTACX_site3054],8.8 ± 0.45
13,ATAATAATATGTGGGTGTACATATACACATATATAT [XGTACX_site4356],8.91 ± 0.33
14,ATAAATTGAAGTAAATTTGACCTTTTTTTTTTTTTT [GTGCAC_negctrl_site354],8.31 ± 0.27
15,AGAACATGCAAACATGCACACAGAAAAAAAAAATAT [CACACA_site8442],8.97 ± 0.3
16,TTTATTGATAATATATATATATATATATATATATAT [GTGCAC_negctrl_site552],10.2 ± 0.48
17,AATATCTTAGTGGATACACACATATAAATGGGTATT [CACACA_site4426],8.34 ± 0.35
18,AAAAAATTAAAAAAAAAAAAATCATGAAAAAAACAA [CACACA_negctrl_site1673],8.41 ± 0.57
19,TCATATGTTAAACACACACACACACCGAAAAAAACA [CACACA_site9067],8.78 ± 0.54
20,CTTATATTAAGTATTACACACATATATATAAATGCA [CACACA_site4581],8.6 ± 0.61
21,CCTAAATAAATGGACACACACATATATATATATATA [CACACA_site1439],10.2 ± 0.32
